Among all 210,000 compounds or so, about 5,900 (2.8%) were called active. The inconclusive results got no clear call from the source; some entries with a clear call stand among them for comparison. The call rests on the fitted dose curve; in most records, active means well fitted activation curve with a large enough effect; inconclusive means small, poorly fitted or top-dose-only effect; inactive means no such curve, though single readings can be large or run the other way. Where the call is inconclusive, the potency comes from a doubtful curve fit.
Assay: qHTS Assay for Enhancers of SMN2 Splice Variant Expression; further: nearly all actives have a fitted effect of over 55% in size; on activity change, positive = activation: % of control where 0% means no effect
Details: HEK293 SMN2-luciferase splicing reporter, luminescence, 30-36 h; activity change, positive = activation: at 46.1 µM (top of the series)
In short: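 HEK293 cells carry an SMN2 minigene-luciferase reporter in which exon 7 inclusion puts luciferase in frame. Cells were seeded at 2000 cells/well, attached for 10-12 hours, then exposed to compounds for 30-36 hours at 37C before ONE-Glo luminescence.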
Potency means the concentration at half of the fitted maximal effect; tags describe the fitted curve by direction and shape.

Row | SMILES | Potency | activity change, positive = activation
1 | CCNc1oc(COc2ccccc2F)nc1C#N | inconclusive: 4.47 µM [activator, partial curve, poor fit] | 
2 | COC(=O)c1cccc(NC(=O)c2ccc(OC)c(Cl)c2)c1 | inconclusive: 20 µM [activator, single point] | 
3 | CCC(C)(C)NC(=O)c1ccc2c(c1)OCCO2 | inactive | 
4 | CC(=O)c1c(C)[nH]c(C(=O)Nc2nc(C)cs2)c1C | active: 1.58 µM | 
5 | Cc1ccc(CNC(=O)CCCOc2cc(=O)n(C)c3ccccc23)o1 | inconclusive: 20 µM [activator, single point] | 
6 | CCOC(=O)c1ccc(NC(=S)Nc2ccccc2)cc1 | inconclusive: 0.02 µM [activator, full curve, poor fit] | 
7 | COC(=O)C1=C(C)NC2=C(C(=O)c3ccccc32)C1c1ccc(-c2ccc(C(=O)O)cc2)o1 (configuration not stated) | inconclusive: 14.1 µM [activator, single point] | 
8 | COc1ccc(C(=O)OCC(=O)Nc2ccc([N+](=O)[O-])cc2OC)c(O)c1 | inactive | 
9 | Cn1c(SCc2ccc3c(c2)OCO3)nnc1-c1ccccc1 | inconclusive: 14.1 µM [activator, single point] | 
10 | O=C(c1cnccn1)N(c1ccccc1)C1(C(=O)NC2CCCC2)CCCCC1 | inconclusive: 0.0224 µM [activator, full curve, poor fit] | 
11 | Cc1c(C(=O)NCc2ccc(S(N)(=O)=O)cc2)oc2ccc(Cl)cc12 | inconclusive: 31.6 µM [activator, single point] | 
12 | COCCNC(=O)CCSCc1ccccc1F | inconclusive: 14.1 µM [activator, partial curve, poor fit] | 
13 | COc1cc2c(cc1NC(=O)C(C)Oc1ccc(Cl)cc1Cl)oc1ccccc12 (configuration not stated) | inactive | 
14 | CCc1ccc(C(=O)Nc2cc(C)ccc2F)s1 | inconclusive: 14.1 µM [activator, partial curve] | 
15 | COc1ccc(-c2noc(CSc3nnc(-c4ccncc4)n3-c3cccc(C)c3)n2)cc1OC | inactive | 
16 | COc1cc(NC(=O)c2ncn[nH]2)cc(OC)c1OC | inconclusive: 1.41 µM [activator, partial curve] | 
17 | O=C(c1cc2ccccc2o1)c1nc2c(n1O)CCCCC2 | inconclusive: 0.447 µM [activator, partial curve, poor fit] | 
18 | O=C1CCc2ccc(NS(=O)(=O)c3ccc(F)cc3)cc2N1 | inconclusive: 0.0089 µM [activator, full curve, poor fit] | 
19 | O=c1cc(-c2ccccc2)oc2cc(O)c(O)c(O)c12 | inconclusive: 12.6 µM [activator, single point] | 
20 | CC(=O)NC1C(c2nc3ccccc3s2)=C(c2ccccc2)C(=O)N1c1ccc(C)cc1 (configuration not stated) | inactive | 
21 | N/C(=N\OC(=O)c1cc(Cl)ccc1Cl)c1cccnc1 | inconclusive: 22.4 µM [activator, single point] | 
22 | CCCc1ccc(-c2cc(C(=O)NN3CCOCC3)c3ccccc3n2)cc1 | inconclusive: 15.8 µM [activator, single point] | 
23 | COc1cccc(-c2cncnc2NCc2ccccc2)c1 | inactive | 
24 | C/C(=C\C(=O)Nc1nccs1)c1ccccc1 | inconclusive: 22.4 µM [activator, single point] | 

Row | SMILES | Potency | activity change, positive = activation
25 | COc1ccccc1/C=C/c1nc(C#N)c(N2CCCCC2)o1 | inconclusive: 14.1 µM [activator, partial curve] | 
26 | Cc1ccc(SCC(=O)Nc2ccc3c(c2)OCCO3)cc1 |  | inconclusive: 45.2% [activator]
27 | CN(c1ccccc1)c1nc2ccsc2c(=O)s1 | inconclusive: 28.2 µM [activator, single point] | 
28 | N=C(N)SCc1nc(-c2ccc(Cl)cc2)no1 |  | inactive: -0.438% [at 9.22 µM]
29 | COc1ccc(C(C(=O)NC2CCCCC2)N(Cc2cccs2)C(=O)Cc2c[nH]c3ccccc23)cc1 (configuration not stated) | inactive | 
30 | O=C(c1cccc([N+](=O)[O-])c1)N1CCN(c2cccc(Cl)c2)CC1 | inconclusive: 4.47 µM [activator, partial curve] | 
31 | CCC(=O)Nc1ccc2c(c1)ncn2-c1ccccc1 | inconclusive: 15.8 µM [activator, single point] | 
32 | COC(=O)c1sc(NC(=O)c2ccc(C)o2)nc1C | active: 1.58 µM | 
33 | Cn1cccc1-c1nc2ccc(NC(=O)c3ccccc3)cc2[nH]1 | inactive | 
34 | CCOC(=O)CNC(=O)c1cc(C)oc1C | inconclusive: 0.0631 µM [activator, full curve] | 
35 | CCSc1nc2c(c(=O)[nH]c(=O)n2C)n1CC(O)COc1ccccc1C (configuration not stated) | inactive | 
36 | Cc1cc(C)c(NC(=O)C[C@H](CC(=O)O)c2cccc3ccccc23)c(C(=O)N2CCC3(CCCC3)CC2)c1 | inactive | 
37 | COc1ccc(NC(=O)/C=C/c2cccc(F)c2)cn1 | active: 11.2 µM | 
38 | C=CCNc1nc(Nc2ccc(OC)cc2OC)nc(OCC)n1 | inconclusive: 5.62 µM [activator, single point] | 
39 | Cc1cc2ncn(CCOc3ccccc3)c2cc1C | inactive | 
40 | O=C(CSc1ccsc1[N+](=O)[O-])Nc1cccc(F)c1 | inactive | 
41 | O=c1c([N+](=O)[O-])cccn1Cc1cccc(Cl)c1 | inactive | 
42 | Cc1cc(C)c2c(N)c(C(=O)NNC(=O)c3ccccc3)sc2n1 | active: 11.2 µM | 
43 | O=C(c1ccc(C(=O)N2CCOCC2)nc1)N1CCOCC1 | inconclusive: 0.0063 µM [activator, full curve, poor fit] | 
44 | Cc1ccc(-c2nc3ccccc3s2)cc1NC(=S)NC(=O)c1cccc2ccccc12 | inconclusive: 35.5 µM [activator, single point] | 
45 | Cn1c(=O)c2c(nc(CN3CCN(CCO)CC3)n2Cc2cccc3ccccc23)n(C)c1=O | inconclusive: 0.0032 µM [activator, full curve, poor fit] | 
46 | Cc1ccc(C)c(N2CCN(c3cnn(-c4nc5ccccc5s4)c(=O)c3Cl)CC2)c1 | inconclusive: 28.2 µM [activator, single point] | 
47 | Cn1nc(-c2ccc(N3CCOCC3)c(NS(=O)(=O)c3ccccc3)c2)c2ccccc2c1=O | inconclusive: 3.55 µM [activator, partial curve, poor fit] | 
